Values joined by “and” are separate entries in the source; they are usually repeats but may differ in a detail not shown here. Equal entries are not always repeated.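 1) Cells in 96-well plates. 2) Compound, 48 h, 5 concentrations. 3) Linear interpolation between surrounding doses. 4) Unreached endpoint = highest concentration. GI50: concentration for 50% inhibition of growth. Definition used: TGI = concentration required for complete inhibition of growth.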 Numbered stars: 1 amine (or outer) side, 2 acyl side, 3 side chain; on linkers, the order of the positions; unused ones are H or OH. Bridge positions count the residues as written; N and C are the ends. Square brackets hold non-standard residues; d marks the D form. Peptide text beside a SMILES is read from it. * marks the point of attachment. ξ: configuration not given here. X31 = O=C(C(CCCCNO[*:3])N[*:1])[*:2]; Fmoc = O=C(OCC1c2ccccc2-c2ccccc21)*; ξW = NC(Cc1c[nH]c2ccccc12)C(=O)O; ξP = O=C(O)C1CCCN1

For the test, the system named is NCI-H322M lung. Kind of test: inhibition of tumour cell growth, NCI panel, 48 h.
Consider `Cc1ccc([C@@H]2[C@@H](C(=O)c3ccccn3)[C@H](c3ccc(C)cc3)C[C@](O)(c3ccccn3)[C@H]2C(=O)c2ccccn2)cc1`, for which the TGI worked out at 55 µM.
On the same count and under the same terms, in the case of `CCOC(=O)CCc1cc(=O)oc2cc(O)cc(O)c12` it was more than 100 µM; in that of `CC(C)(N=NC(C)(C)C(=O)NCCO)C(=O)NCCO`, more than 100 µM.
Regarding `O=C(Nc1ccc(Br)cc1)c1c(-c2ccccc2)c2ccc(O)cc2oc1=O`, the TGI is more than 10 µM.
Still for that read-out and setting: in the case of `CCCCNC1=C(C(=O)OCC)C(=O)CO1` it was more than 100 µM.
Take `COc1ccc2c(c1)c(-c1nc(-c3cn(C)c4ncccc34)cs1)cn2CCCN1CCCCC1`: the GI50 is 1.63 µM and the TGI amounted to 3 µM.
For the molecule `COC(=O)C1C(C(=O)OC)N(Cc2ccccc2)C(=O)N1Cc1ccccc1` (configuration not stated), the TGI is more than 100 µM.
For the molecule `O=C(O)Cn1ccc(=O)c2ccc([N+](=O)[O-])cc21`, the TGI was more than 100 µM.
The same measure, in the same setting: under `CN1C(=O)C2C(=O)N(Cc3ccccc3)CC(=O)N2c2cccnc21` (configuration not stated) stands more than 100 µM; under `NC(=O)N/N=C(\Cc1nc2ccc(Cl)cc2[nH]c1=O)C(=O)Nc1ccc(Cl)cc1Cl`, more than 100 µM.
On the same count and under the same terms, in the case of `Cc1nnc2n1N=C(c1cc(F)c(Cl)cc1Cl)/C(=C/c1ccc(Cl)cc1)S2` it was more than 100 µM.
Take `NCC(=O)NS(=O)(=O)OC[C@H]1O[C@@H](n2cnc3c(N)ncnc32)[C@H](O)[C@@H]1O`: the GI50 was 1.52 µM and the TGI came to 4.52 µM.
As to `COC(=O)c1cc2c3ccccc3[nH]c2c2ncccc12`, the GI50 is more than 100 µM and the TGI was more than 100 µM.
Regarding `N#C/C(=C1C=C/C(=N/O)C(Br)=C/1)c1ccccc1`, the GI50 is 3.97 µM and the TGI is more than 100 µM.
In the same order, the values of `O=C1c2c(c3c4ccccc4n(CCCCCCBr)c3c3[nH]c4ccccc4c23)C(=O)N1O` are 2.5 µM and 12.5 µM.
`N#C/C(=C/c1ccsc1)C(=O)c1ccccc1` registered a TGI of more than 100 µM.
In the case of `CC1CCC2(C(=O)O)CCC3(C)C(=CCC4C5(C)CC(O)C(O)C(C)(CO)C5C(O)CC43C)C2C1C` (configuration not stated), the TGI was more than 100 µM.
In turn, `COc1cnc2cc(C(=O)O)c3c([N+](=O)[O-])cccc3c2c1` gave a TGI of more than 100 µM.
On to `C/C(CCOC1CCCCO1)=C(\C)[Si](C)(C)C` (configuration not stated), for which the TGI is more than 100 µM.
Still for that read-out and setting: under `CC1=C2C(=O)NN=C2CCN1c1ccc(Br)cc1` stands more than 100 µM; under `COc1ccccc1N/C(=C\C(=O)C(=O)NC12CC3CC(CC(C3)C1)C2)c1ccccc1`, more than 10 µM.
With `CC(=O)OCC1OC(OC(C)(C)CC/C=C(\C)[C@@H]2C/C=C(\C)CC/C=C(\C)CC2)C(O)C(O)C1OC(C)=O` (some centres not stated), the GI50 is > 100 µM and 19.6 µM; the TGI is > 100 µM and 40.9 µM.
As to `NC(=O)CNC(=O)C1CCCN1C(=O)C1CCCCNOC(=O)CC[C@@H](NC(=O)OCC2c3ccccc3-c3ccccc32)C(=O)NC(Cc2c[nH]c3ccccc23)C(=O)N1` (some centres not stated) (Fmoc-[dE][ξW][X31][ξP]G-NH2; ester 1-3), the TGI was more than 100 µM.
Same read-out and setting: in the case of `O=C(NNC(=S)Nc1ccc(Cl)cc1)c1cc(-c2ccccc2)nc2ccccc12` it was 19 µM.
The same measure, in the same setting: in the case of `COc1ccc(C2Oc3c(cc(O)c(OC)c3C)[C@@H]2C)cc1OC` (some centres not stated) it was more than 100 µM.
In turn, `OCC1CCCCCCCCCCC12SCCCS2` (configuration not stated) returned a TGI of more than 100 µM.
`Cn1cc(-c2cnc3ccc(NC(=O)Nc4ccc(F)c(Br)c4)cc3n2)cn1`: the GI50 is 1.84 µM and the TGI is 4.46 µM.
Molecule `OCCCCCNc1c2ccccc2nc2ccccc12` had a TGI of 14.9 µM.
Take `CC1=C(C(=O)Nc2ccc3[nH]ncc3c2)C(c2ccc3ccccc3c2)CC(=O)N1` (configuration not stated): the GI50 is more than 25 µM and the TGI is more than 25 µM.
Take `O=C1CCC[C@@H]2NC[C@@H](c3ccc4c(c3)OCO4)[C@H]12`: the TGI is more than 25 µM.
Consider `COc1ccc(CNc2cc(OC)c(OC)c(OC)c2)cc1`, for which the TGI was 91.3 µM.
Regarding `CCCc1cc(=O)c2c(C)c3[nH]c4ccc(Cl)cc4c3c(C)c2[nH]1`, the TGI was found to be 30.4 µM.
In turn, `N#CC(C(=N/O)/C(=N/O)C(C#N)c1ccc(Cl)cc1)c1ccc(Cl)cc1` (configuration not stated) had a TGI of more than 100 µM.
Take `Nc1ccn(C2O[C@H](CO)[C@@H](O)[C@@H]2O)c(=O)n1` (some centres not stated): the TGI was more than 100 µM.
Still for that read-out and setting: under `Cc1nc2c(nc1Cl)nc(Oc1ccc(Cl)cc1)c1ccccc12` stands more than 100 µM; under `CN1C(=O)N(c2ccccc2)C2(CCN(CC3COc4ccccc4O3)CC2)C1=O` (configuration not stated), more than 100 µM.
Take `CCCCC/C(C=C(C#N)C#N)=C/c1ccccc1`: the GI50 is 5.09 µM and the TGI came to 21.4 µM.
The molecule `COc1ccccc1Nc1nc(N)nc(N)c1N=O` came in with a TGI of more than 100 µM.
As to `Nc1nc(=S)c2ncn(C3CC(O)C(CO)O3)c2[nH]1` (configuration not stated), the TGI was 576 µM and 2380 µM.
The molecule `CC(=O)Nc1ccccc1Sc1ccccc1` showed a TGI of more than 100 µM.
Turning to `CC1OC(O[C@H]2C[C@@H](O)[C@]3(CO)[C@H]4[C@H](O)C[C@]5(C)[C@@H](C6=CC(=O)OC6)CC[C@]5(O)[C@@H]4CC[C@]3(O)C2)C(O)C(O)C1O` (some centres not stated), the GI50 is 24.4 µM and the TGI stood at 49.1 µM.
In turn, `NC(N)=NS(=O)(=O)c1ccc(NCc2c3ccccc3[n+]([O-])c3ccccc23)cc1` registered a TGI of more than 100 µM.
For `CCOP(=O)(OCC)/C(C#N)=C/c1cnc(-c2ccccc2)[nH]1`, the TGI is more than 100 µM.
Turning to `COc1cccc(-c2cc(=O)c3cc(N(C)C)ccc3[nH]2)c1`, the TGI is 8.51 µM and 47.2 µM.
Same read-out and setting: under `CC(C)OP(=O)(OC(C)C)c1c(Nc2ccccc2)n[nH]c1N` stands more than 100 µM; under `Cc1ccc(C)c(NC(=O)CC/C(=N\NC(=O)C(=O)NN)C(C)C(=O)c2ccc(O)cc2)c1` (configuration not stated), more than 100 µM.
In turn, `CC1=C(C(=O)Nc2ccc([N+](=O)[O-])cc2)C(c2ccc(N(C)C)cc2)C(C(=O)Nc2ccc([N+](=O)[O-])cc2)=C(C)N1` registered a TGI of 52.5 µM.
In turn, `CN(C(=O)C12C3C4C1C1C2C3C41C(=O)C(C)(C)C)C(C)(C)C` (configuration not stated) registered a TGI of more than 100 µM.
Same read-out and setting: in the case of `Cc1c(F)c(N)c2c(=O)cc(-c3ccc(NC(=O)CN(C)C)c(F)c3)oc2c1F` it was more than 100 µM; in that of `CC1(C)OCC(COC(=O)C=[N+]=[N-])O1` (configuration not stated), more than 100 µM.
Take `CN(C)CCNc1cc(-c2ccccc2)nc2ccccc12`: the GI50 was 7.2 µM and the TGI came out at 34.9 µM.
The molecule `Cn1cc2ccccc2c1-c1nc(N)nc(F)n1` registered a TGI of more than 100 µM.
The molecule `COc1ccc(N2C(=O)C3c4[nH]c5ccc(OCc6ccccc6)cc5c4C4CCC(C(C)(C)C)CC4C3C2=O)cc1` (configuration not stated) returned a TGI of more than 100 µM.
For `O=C(CI)NC1Oc2ccccc2-c2oc(=O)c(-c3ccccc3)cc21` (configuration not stated), the GI50 is 17 µM and the TGI came to 36.7 µM.
Turning to `CN(C)CCCOC(=O)C(c1ccccc1)C1(O)CCSCC1` (configuration not stated), the TGI was more than 100 µM.
As for `COc1cc(O)c(/C=N/N=C(\N)NO)c(OC)c1`, the TGI was more than 10 µM.
In the case of `CCOc1cc(NC(C)=O)ccc1C(=O)NNC(=O)c1ccccc1OC(C)=O`, the TGI is more than 100 µM.
Same read-out and setting: in the case of `N.N.N.O=[N+]([O-])[O-].O=[N+]([O-])[O-].O=[N+]([O-])[O-].O=[N+]([O-])[O-].[Co+3]` it was more than 100 µM; in that of `COc1cc2c(cc1OC)C1=Cc3cc(OC)c(OC)cc3C(C)N1C=C2` (configuration not stated), more than 100 µM.
Regarding `N#Cc1ccc(C#Cc2ccccc2C#CCCCCO)cc1`, the GI50 was 14.1 µM and the TGI came to 27.7 µM.
The molecule `CC(=O)OCC(C)C1=C(O)C(=O)C2(C)C/C=C(/C)CC/C=C(\C)CCC(O)C(C)CCC12` (configuration not stated) showed a TGI of 30.5 µM.
Same read-out and setting: under `CC(C)(C)c1ccc2c(c1)CNCCNCc1cc(C(C)(C)C)ccc1OCC1(CO2)COc2ccc(C(C)(C)C)cc2CNCCNCc2cc(C(C)(C)C)ccc2OC1` stands 3.23 µM; under `CCN1c2ccccc2-n2c(C)nnc2-c2c1n[nH]c2-c1ccccc1`, more than 100 µM.
`CC(O[Si](c1ccccc1)(c1ccccc1)C(C)(C)C)[C@H](NC(=O)OC(C)(C)C)C(=O)O[Si](c1ccccc1)(c1ccccc1)C(C)(C)C` (some centres not stated) displayed a TGI of 25.1 µM.
Consider `COc1ccc(C(C#N)NNC(=O)c2ccccc2O)cc1OC` (configuration not stated), for which the TGI was more than 100 µM.
Take `Cc1cc(N(CCOS(C)(=O)=O)CCOS(C)(=O)=O)ccc1C=Nc1ccc(-c2nc(Cc3ccccc3)sc2C)cc1`: the TGI is 18.6 µM.
Take `O=C1c2cccc(NCCN=Cc3cc(O)ccc3O)c2C(=O)c2c(NCCN=Cc3cc(O)ccc3O)cccc21`: the GI50 was 1.05 µM and the TGI worked out at 3.35 µM.
Regarding `Brc1ccc(CCNCCN2CCCCC2)cc1`, the TGI worked out at 35.4 µM.
Still for that read-out and setting: under `Cc1cc2c(cc1C)[n+](=O)c(C(=O)CC(=O)C(=O)Nc1c(C(C)C)cccc1C(C)C)c(C)n2[O-]` stands more than 100 µM.
In turn, `CCCCN1C(=O)CC2[C@@H]3CCc4cc(OC(C)=O)ccc4C3CC[C@]2(C)C1=O` (some centres not stated) showed a TGI of more than 10 µM.
Turning to `O=C(NCCOCCOCCNc1cccc2c1C(=O)N(C1CCCNC1=O)C2=O)c1cc2c(o1)C(=O)c1ccccc1C2=O` (configuration not stated), the GI50 was 1.88 µM and the TGI worked out at 3.5 µM.
The molecule `CC1(O)CC(C(F)(F)F)(C(F)(F)F)OC1=O` (configuration not stated) returned a TGI of more than 10 µM.
The same measure, in the same setting: in the case of `Cc1nc2cccc([N+](=O)[O-])c2c(NCCCN(C)C)c1C` it was more than 58.6 µM.
On to `COc1ccc(/C(=C2\O[C@@H]([C@H]3COC(C)(C)O3)[C@H]3OC(C)(C)O[C@@H]23)c2cc(OC)c(OC)c(OC)c2)cc1O`, for which the GI50 is 6.58 µM and the TGI was more than 100 µM.
As to `O=C1OCc2c1cc1ccc(O)c(OC3OC(CO)C(O)C(O)C3O)c1c2-c1ccc2c(c1)OCO2` (configuration not stated), the TGI is more than 100 µM.
For `c1ccc2c(c1)OC(N1CCCC1)c1cnc(N3CCCC3)nc1-2` (configuration not stated), the TGI is more than 100 µM.
In turn, `COc1ccc2ccc3c(c2c1)CN1CCc2cc(OC)c(OC)cc2C1C3` (configuration not stated) displayed a TGI of more than 100 µM.
Same read-out and setting: in the case of `OCc1ccc2[n+](c1)CCC1c3ccccc3NC21` (configuration not stated) it was more than 300 µM.
Still for that read-out and setting: under `COc1ccc2cc1Oc1ccc(cc1)CC1c3cc(c(OC)cc3CCN1C)Oc1c3c(cc4c1C(C2)N(C)CC4)OCO3` (configuration not stated) stands 27.1 µM.
As to `COc1cccc(-c2cc(=O)c3ccccc3o2)c1N`, the TGI is more than 100 µM.
For the molecule `Nc1cc(CO)cc(Nc2nc3ccc(Cl)cc3c3[nH]c4ccccc4c23)c1`, the TGI worked out at 22.1 µM.
Molecule `C=C1CC(COc2cc(=O)oc3ccccc23)(c2ccccc2)OC1=O` (configuration not stated) showed a TGI of 25.4 µM.
In turn, `CCCCCCCCCCCC(=O)CC(=O)c1c(O)cccc1O` gave a TGI of 45.2 µM.
Still for that read-out and setting: under `COc1cccc2c(N)c3cccc(C(=O)NCCN(C)C)c3nc12` stands 1.52 µM.
For `O=NN(Cc1ccc(Cl)cc1)C(C(=O)O)c1ccccc1` (configuration not stated), the TGI is more than 100 µM.
In turn, `COCCOCOc1ccc(OCc2ccccc2)cc1` registered a TGI of more than 100 µM.
